# Experimental data from PubChem BioAssay AID1345083 (National Center for Advancing Translational Sciences (NCATS), 2018).
# Among all 94,000 compounds or so, about 6,200 (6.6%) were called active. The inconclusive results got no clear call from the source; some entries with a clear call stand among them for comparison. Calls follow the shape of the dose curve; as a rule, active = well fitted inhibition curve with a large enough effect; inconclusive = small, poorly fitted or top-dose-only effect; inactive = flat fitted curve, though single readings scatter. A potency beside an inconclusive call is a rough fit, not a confirmed value.
# Assay: Cytotoxic Profiling in HEK 293 Cell Line of Diverse Libraries Using Quantitative High-Throughput Screening; also: nearly all actives have a fitted effect of over 60% in size
# Settings: HEK 293 viability, ATP luminescence (CellTiter-Glo), 48-72 h; series mostly up to 115 µM
# Summary of the method: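 Cytotoxicity was scored by loss of ATP-coupled luminescence (CellTiter-Glo) in HEK 293 cells. Compound treatment ran 48 or 72 hr at 37 degree Celsius, 5% CO2, 95% humidity.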
# Potency is read from the fitted curve at half-maximal effect; tags tell the direction and shape of the fitted curve.
row,SMILES,Potency
1,Cc1ccsc1CN1CC(Oc2ccccc2C(=O)NCc2ccccc2)C1,active: 39.8 µM
2,CCCNC(=O)Cn1ccn2nc(-c3ccccc3)c(CO)c2c1=O,inactive
3,COc1ccc(CCC(=O)N2CCCC(c3nc(-c4ccccc4)no3)CCNC(=O)CC2)cc1 (stereo not drawn),active: 89.1 µM
4,Cc1nnnn1CCCN1CCc2onc(-c3ccc(C(F)(F)F)cc3)c2C1,"inconclusive: 79.4 µM [inhibitor, partial curve, poor fit]"
5,Cc1cccc(CNC(=O)c2c(C)noc2-c2ccc3c(c2)OCO3)c1,"inconclusive: 89.1 µM [inhibitor, single point]"
6,CC(C)CN1C(=O)CO[C@H](c2ccc(NC(=O)c3cccc(C#N)c3)cc2)[C@H]1CO,"inconclusive: 89.1 µM [inhibitor, partial curve]"
7,N#Cc1cccc(C(=O)N2CCC3(CCC3N3CCOCC3)CC2)c1 (stereo not drawn),inactive
8,O=C(O)C[C@@H]1CCN(C(=O)COc2ccccc2)C[C@@H]1CCN1CCC(n2c(=O)[nH]c3ccccc32)CC1,inactive
9,O=C(Cc1ccc(F)cc1)N1CCC(n2cc(-c3nc(-c4ccccc4)no3)nn2)C1 (stereo not drawn),"inconclusive: 50.1 µM [inhibitor, partial curve, poor fit]"
10,Cc1ccc(Cn2c(=O)c(-c3noc(C)n3)c3n(c2=O)CCCCC3)cc1,inactive
11,COc1ccc(CN2CCC3(CC2)Cc2ccccc2CNC3=O)cc1,inactive
12,Cc1nc(N2CCC(NC(=O)c3sccc3C)CC2)cc(C(F)(F)F)n1,"inconclusive: 39.8 µM [inhibitor, partial curve, poor fit]"
13,COc1cc(Cl)c(C)cc1NC(=O)Cn1ccn2nc(-c3ccc(F)cc3)c(CO)c2c1=O,"inconclusive: 79.4 µM [inhibitor, partial curve, poor fit]"
14,O=C(Nc1ccc(Oc2ccccc2)cc1)N[C@H]1CO[C@H]2[C@@H]1OC[C@H]2OC(=O)Nc1cccc2ccccc12,active: 17.8 µM
15,O=C(NCc1nnc2c(-c3nc(C4CC4)no3)cccn12)c1nccc2ccccc12,"inconclusive: 39.8 µM [inhibitor, partial curve, poor fit]"
16,Fc1ccc(NC(=S)N[C@H]2CO[C@H]3[C@@H]2OC[C@@H]3n2nnnc2Oc2ccc(-n3cncn3)cc2)cc1,"inconclusive: 50.1 µM [inhibitor, partial curve, poor fit]"
17,COCCn1c(=O)c(C(=O)N2CCN(C(=O)OC)CC2)nc2cccnc21,inactive
18,CCOCCNC(=O)[C@@H]1CCCN1C(=O)c1cccc(-c2ccccc2OC)c1,"inconclusive: 89.1 µM [inhibitor, single point]"
19,CCN(CC)c1cc(CCC(=O)NCc2cccs2)ccn1,inactive
20,C#CCNC(=O)c1nc2sccn2c1-c1cccnc1,inactive
21,CC(=O)N1CCC(C(=O)N2CCC3(CC2)NC(=O)N(c2ccccc2)N3)CC1,"inconclusive: 10 µM [inhibitor, full curve, poor fit]"
22,COc1ccc(-n2c(=O)c(C(=O)Nc3ccc(F)cc3)nc3cccnc32)cc1,inactive
23,CN1C(=O)C(c2ccccc2)CC12CCN(C(=O)c1ccc(F)cc1F)CC2 (stereo not drawn),inactive

row,SMILES,Potency
1,COc1ccccc1-c1cccc(C(=O)N2CCN(C(=O)c3ccc(C)cc3)CC2)c1,active: 39.8 µM
2,CCC1(CC)CC1C(=O)NCc1cc2c(nc1OC)CN(C1CCCC1)C2=O (stereo not drawn),"inconclusive: 44.7 µM [inhibitor, partial curve, poor fit]"
3,Cn1cnc(S(=O)(=O)NCCc2noc(-c3ccncc3)n2)c1,inactive
4,COc1ccc(N2C(=O)CSC23CCN(C(=O)C2CCCC2)CC3)cc1,"inconclusive: 89.1 µM [inhibitor, single point]"
5,COCCN1CCC(C(=O)N2CCn3nc(Cc4ccccc4)cc3C2)C1 (stereo not drawn),"inconclusive: 63.1 µM [inhibitor, partial curve, poor fit]"
6,C[C@]1(CO)[C@H]2Cc3sc(NC(=O)c4cccc(F)c4)nc3[C@@H](CC(=O)N3CCOCC3)[C@]2(C)CC[C@H]1O,inactive
7,O=C(Cc1ccc(F)cc1)N1CCCC(C(=O)N2CCC(c3ccccc3)CC2)C1 (stereo not drawn),"inconclusive: 50.1 µM [inhibitor, partial curve, poor fit]"
8,O=C(c1ccccc1Cl)N1CCC2(CC1)Cc1ccccc1NC2=O,active: 44.7 µM
9,CN(CC1CCOCC1)C(=O)NCCc1ccccc1,inactive
10,CCn1nccc1C(=O)N1CCC(c2noc(COc3ccc(F)cc3)n2)C1 (stereo not drawn),active: 44.7 µM
11,NC(=O)[C@H]1C[C@@H](O)[C@H](O)[C@H]2[C@@H]1SC(=Nc1ccc(Cl)cc1)N2CC1CCCCC1,"inconclusive: 56.2 µM [inhibitor, partial curve, poor fit]"
12,CN(C)C[C@@H]1CN(C)C[C@H]1NC(=O)c1ccnnc1,inactive
13,O=C1Cc2c(-c3ccc(Oc4ccccc4)cc3)n[nH]c2CN1Cc1ccccc1F,"inconclusive: 70.8 µM [inhibitor, partial curve, poor fit]"
14,Cc1nc2c(c(-c3ccc(O)cc3)n1)CN(Cc1cccc3ccccc13)CCC2,active: 31.6 µM
15,O=C(NCc1ccccc1)N1CCCC(Cc2noc(-c3ccncc3)n2)C1 (stereo not drawn),"inconclusive: 89.1 µM [inhibitor, single point]"
16,CC(=O)N1CCC(N2CC[C@H](CO)[C@H](NC(=O)C3CC3)C2)CC1,"inconclusive: 89.1 µM [inhibitor, single point]"
17,O=C1CC2(CCN(Cc3ccsc3)CC2)Oc2ccccc2N1c1ccccc1,"inconclusive: 50.1 µM [inhibitor, partial curve, poor fit]"
18,O=C(Nc1ccc(Oc2ccccc2)cc1)N[C@H]1CO[C@H]2[C@@H]1OC[C@@H]2n1nnnc1Oc1ccccc1,"inconclusive: 31.6 µM [inhibitor, full curve]"
19,Cn1cccc1C(=O)NCc1nnc2ccc(-c3ccccc3)nn12,"inconclusive: 100 µM [inhibitor, single point]"
20,Cc1ccc(CN2C(=O)OC(c3cccc(NC(=O)c4ccc(F)cc4)c3)C2C(=O)NC2CC2)cc1 (stereo not drawn),"inconclusive: 50.1 µM [inhibitor, partial curve, poor fit]"
21,COc1ccc(-c2cc(-c3ccncc3)c3cncn3c2)cn1,"inconclusive: 63.1 µM [inhibitor, full curve, poor fit]"
22,O=C(NCc1cccc(Cl)c1)C1CCN(C(=O)c2ncn3c2COC(c2ccc(F)cc2)C3)CC1 (stereo not drawn),inactive
23,CC1(COCC2CC2)COc2ccc(C(=O)Nc3cccc([S+](C)(=O)[O-])c3)cc2N1 (stereo not drawn),active: 100 µM

row,SMILES,Potency
1,O=C(CCC1CCCC1)NCC(=O)N1CCCCCCNC(=O)CC1c1ccccc1 (stereo not drawn),inactive
2,C#CCNC(=O)C1CCc2nnc(-c3cccc(C(F)(F)F)c3)n21 (stereo not drawn),inactive
3,COc1cccc(CCC(=O)Nc2ccc3c(c2)CCC(=O)N3C)c1,"inconclusive: 56.2 µM [inhibitor, single point]"
4,Cc1nn(-c2ccccc2)c2c1C(C)N(CC1CN(C(=O)c3ccc(Cl)cc3)C1)C2=O (stereo not drawn),"inconclusive: 56.2 µM [inhibitor, partial curve, poor fit]"
5,Cc1ccc([S+](=O)([O-])N2CC(CN3C(=O)c4c(c(C)nn4-c4ccccc4)C3C)C2)cc1 (stereo not drawn),inactive
6,COc1ccc(CN2CC(Oc3ccc(F)cc3C)C2)cc1,active: 70.8 µM
7,CCOCCOc1cccc(C(=O)N2C[C@@H](N(C)C)[C@H](C(C)C)C2)c1,"inconclusive: 89.1 µM [inhibitor, single point]"
8,Cn1c(CO[C@H]2CN(Cc3cnc4ccccc4c3)C[C@H]2F)nc2ccccc21,active: 79.4 µM
9,O=C1CCN(C(=O)C2COc3ccccc3O2)CCCOCCN1 (stereo not drawn),"inconclusive: 50.1 µM [inhibitor, partial curve, poor fit]"
10,CCN1c2cc(C(=O)NCCOc3ccccc3OC)ccc2C(=O)N2CCCCCC21 (stereo not drawn),"inconclusive: 50.1 µM [inhibitor, partial curve, poor fit]"
11,C/C=C/CC(=O)N1CCC2(CCN(Cc3cccc(F)c3)CC2)C(CO)C1 (stereo not drawn),"inconclusive: 89.1 µM [inhibitor, partial curve, poor fit]"
12,O=C(Cc1cccc(Cl)c1)NC1CCCN(c2ccnc3ccnn23)C1 (stereo not drawn),"inconclusive: 89.1 µM [inhibitor, single point]"
13,COc1ccccc1-c1ccnc(-c2nnc(C)n2CCN2CCOCC2)c1,"inconclusive: 100 µM [inhibitor, single point]"
14,Cc1c(C(=O)N2C[C@@H](C)[C@](O)(C3CCC3)C2)n(C)c2c(C)cccc12,"inconclusive: 56.2 µM [inhibitor, partial curve, poor fit]"
15,COC(=O)N1CCc2nc(C3CC3)nc(-c3ccc(Cl)cc3)c2C1,"inconclusive: 112 µM [inhibitor, partial curve]"
16,Fc1ccccc1CNc1cc(Cl)nc2ccnn12,active: 35.5 µM
17,Fc1ccc2c(c1)nc1n2[C@@H](CNCc2c[nH]c3ccccc23)COC1,"inconclusive: 112 µM [inhibitor, partial curve, poor fit]"
18,Cc1ccc(C(=O)N2CCCC2C(=O)Nc2cccc(-n3cccn3)c2)cn1 (stereo not drawn),inactive
19,COc1ccc(CCC(=O)N2CCC3(CC2)CC(OC)CCO3)cc1 (stereo not drawn),inactive
20,O=C(NCCNC(=O)c1ccc(-c2cncnc2)cc1)c1ccncc1,inactive
21,Cn1cc(-c2cccc(C(F)(F)F)c2)c2nc(CNc3ccccc3)cn2c1=O,active: 50.1 µM
22,CN(Cc1ccccc1)C(=O)C1(C)CCCc2cnc(N(C)C)nc21 (stereo not drawn),"inconclusive: 112 µM [inhibitor, single point]"
